Molecules are shown by their SMILES. Several values for one entry are separate records, joined by “and”; a condition that tells them apart may be missing. Equal values may be shown once.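 Compound exposure: 48 hours, 5 concentrations, 96-well plates. GI50: concentration for 50% inhibition of growth. The concentration for full growth arrest is given as TGI.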

The test system of this assay is NCI-H322M lung. Kind of assay: inhibition of tumour cell growth, NCI panel, 48 h.
Compound `Cc1ccc2c(c1C)CC1(Cc3ccc(C)c(C)c3C1=O)C2=O` (stereo not given) yielded a TGI of 88.9 µM.
The compound `C(=C\c1cc[n+](CCc2ccccc2)cc1)/c1ccccc1` came in with a TGI of 58.5 µM.
As to `CCCCCCCCCCCCOC1C(C(COC2OC(C(O)CO)C3OC(C)(C)OC23)OC(=O)Nc2ccccc2)OC2OC(C)(C)OC21` (stereo not given), the GI50 was 11.7 µM and the TGI worked out at 26.5 µM.
The compound `Cc1cc(C=O)c2c(=O)c3c(O)ccc(/C=C/C(C)C)c3oc2c1` yielded a TGI of over 100 µM.
Take `CCN(CC)c1ccc(Cl)c2c1C(O)(C(C)C)C2(C)C` (stereo not given): the TGI is 34 µM.
The same measure, in the same setting: to `NC(Cc1cc(I)c(Oc2ccc(O)c(I)c2)c(I)c1)C(=O)O` (stereo not given) belongs over 100 µM; to `N=C(N)SCc1ccc(Cl)c2ccccc12` (tested in a mixture with another compound), 25.8 µM and 28.8 µM.
For `CC1=C(C(=O)Nc2ccc3[nH]ncc3c2)C(c2ccc(F)cc2)N=C(c2ccc(C(F)(F)F)nc2)N1` (stereo not given), the GI50 is over 25 µM and the TGI was over 25 µM.
Take `CC1(C)CC2=NO[Se]3=C2C(=NO3)C1`: the TGI worked out at 8.77 µM.
Still for that read-out and setting: the figure for `CCCCCC(=O)OC[n+]1cccc(-c2c(COC(=O)NC(C)C)c(COC(=O)NC(C)C)c3n2CCC3)c1` is over 100 µM.
Turning to `O=c1c2sc3ccccc3sc=2c(=O)c2c(Cl)c(Cl)c(Cl)c(Cl)c12`, the TGI is over 100 µM.
Take `COc1cc(/C=C/c2cc(/C=C/c3ccc(O)c(OC)c3)n(C(=O)Nc3ccc(C)cc3)n2)ccc1O`: the GI50 is 0.544 µM and the TGI worked out at 5.76 µM.
Turning to `CN(C)CCCC1(c2ccc(F)cc2)OCc2cc(-c3csc4ccccc34)ccc21` (stereo not given), the GI50 is 1.38 µM and the TGI was determined as 2.71 µM.
Turning to `C=C1CC[C@@H]2[C@](C)(COC(=O)CCC(=O)OC)CCC[C@@]2(C)[C@@H]1CCC1=CC(=O)OC1`, the TGI is over 100 µM.
Consider `C/C=C(/CCC1NCCc2c1[nH]c1ccccc21)[Si](C)(C)C` (stereo not given), for which the TGI was > 100 µM and 17.5 µM.
In the case of `C/C(=C\c1csc(C)n1)[C@@H]1C[C@@H]2O[C@]2(C)CCC[C@H](C)[C@H](O)[C@@H](C)C(=O)C(C)(C)[C@@H](O)CC(=O)N1`, the GI50 was 0.000312 µM and the TGI amounted to 0.000521 µM.
The corresponding values for `CCCCCCCCCCN=C(N)c1ccc(N2CCN(c3ccc(C(N)=NCCCCCCCCCC)cc3)CC2)cc1` are 3.79 µM and 16.8 µM.
In the case of `Cc1nc2ccc(S(=O)(=O)O)cc2c(=O)n1-c1ccc(C(=O)NN2C(=O)C(Cl)C2c2cccs2)cc1` (stereo not given), the TGI is over 100 µM.
Take `COc1ccc2cc3n(c(=O)c2c1)CCc1c-3cc(OC)c(OC)c1OC`: the TGI was over 100 µM.
Regarding `S=c1[nH]nc(Cn2c3ccc(Br)cc3c3nc4ccccc4nc32)o1`, the TGI is over 100 µM.
In the case of `N#CCC(=O)N/N=C\C(O)C(O)C(O)C(O)CO` (stereo not given), the TGI is over 100 µM.
With `COC(=O)N/N=c1\cc(C(=O)Nc2ccc(C)c(C)c2)oc2cc(O)ccc12`, the TGI is over 100 µM.
Compound `CCCCCNC(=O)CCCCCCCCCCCNC(=O)CCCCCCCCCCN1C=CC(=CC=C2C=CC(=O)C=C2)C=C1` showed a TGI of over 100 µM.
`CCc1nc(N)nc(N)c1-c1ccc(N2CCOCC2)c(N=[N+]=[N-])c1` displayed a TGI of over 100 µM.
The same measure, in the same setting: to `O=C1C(Cl)=CC2(C=C1Cl)CCN=c1c(O)c3c(c(O)c12)=NC=N3` belongs over 100 µM.
As for `C/C=C1/C=CC2c3[nH]c4ccccc4c3CCN2C1` (stereo not given), the TGI was over 400 µM.
Compound `O=C(NC1CCCCC1)c1n[nH]nc1Cl` yielded a TGI of over 100 µM.
Take `O=C(NO)c1ccc(CNc2cccc3nc(C4CC4)n(-c4ccccc4)c(=O)c23)cc1`: the GI50 was 2.84 µM and the TGI turned out to be 15.1 µM.
Turning to `COc1ccc(OC/C(N)=N/NC(=O)c2ccncc2)cc1`, the TGI is over 100 µM.
In the case of `COC(=O)c1sc(=S)sc1SCc1cccc(CSc2sc(=S)sc2C(=O)OC)c1`, the TGI is over 100 µM.
On to `CCN(CC)/[N+]([O-])=N/OS(=O)(=O)N(C)C`, for which the TGI was over 100 µM.
Regarding `CN(C)[C@@H]1C(=O)C(C(=O)NCc2nc3[nH]cnc(=S)c3[nH]2)=C(O)[C@@]2(O)C(=O)C3=C(O)c4c(O)cccc4[C@@](C)(O)[C@H]3C[C@@H]12`, the GI50 is over 100 µM and the TGI is over 100 µM.
Regarding `O=C(c1c(F)c(F)c(F)c(F)c1F)n1c(=S)n(C(=O)c2c(F)c(F)c(F)c(F)c2F)c2ccccc21`, the TGI was over 100 µM.
Same read-out and setting: the figure for `CC[C@@H]1CC[C@@H]2[C@H](CC[C@]3(C)[C@@H](O[N+](=O)[O-])CC[C@@H]23)[C@H]1C(C)=O` is over 100 µM.
Consider `O=[N+]([O-])c1ccc(N/N=C\c2cc(Br)ccc2O)nc1`, for which the GI50 was 1.09 µM and the TGI was found to be 6.05 µM.
`COc1cc(CCN)c(OC)c(OC)c1` came in with a TGI of over 100 µM.
`Oc1c(Br)cc(Cl)cc1C(c1cc(Cl)cc(Br)c1O)C(Cl)(Cl)Cl`: the GI50 is 3.05 µM and the TGI turned out to be 9.82 µM.
Take `Cc1nc2ccc(N=Nc3c(C)noc3C)cc2[nH]1`: the TGI is over 100 µM.
The compound `CCOc1ccc(NC(=O)C(=O)C(/C(=N/N)C(=O)OC)c2nc3ccc([N+](=O)[O-])cc3[nH]c2=O)cc1` (stereo not given) registered a TGI of over 100 µM.
In turn, `CC(C)(C)c1ccc(OCCOCCOc2ccc(C(C)(C)C)cc2S(N)(=O)=O)c(S(N)(=O)=O)c1` gave a TGI of over 100 µM.
In the case of `CC(=O)Nc1ccc2c(c1)C(=O)c1ccccc1-2`, the TGI is over 100 µM.
Same read-out and setting: to `Cc1ccc2c(=O)cc(-c3cc(C)sc3C)[nH]c2n1` belongs over 100 µM.
Turning to `O=C(O)CSc1cc(NS(=O)(=O)c2ccc(Br)cc2)c2ccccc2c1O`, the GI50 is 16.4 µM and the TGI was found to be 31.1 µM.
The corresponding values for `CC(C)c1ccc2c(c1)CCC1C2CCCC1(C)NCc1ccccc1` (stereo not given) are 3.66 µM and 12.4 µM.
For the compound `C=CCN(CC=C)Cc1c[nH]c2ccccc12`, the GI50 was 23.6 µM and the TGI was 79.3 µM.
`O=C(Nc1ccc(Cl)cc1Cl)C1C(=O)OC2(CCCCC2)OC1=O` displayed a TGI of over 100 µM.
The same measure, in the same setting: the figure for `CCCCCCCCCCCCCCCCOP(=O)([O-])OCC[N+](C)(C)C1CC(C)(C)N(O)C(C)(C)C1` is over 100 µM; for `CCOC(=O)c1nc2ccc(C(F)(F)F)cc2nc1Oc1ccc(OC)cc1` it is over 100 µM.
The same measure, in the same setting: to `Cc1cc2nnn(C3CCCCO3)c2cc1C` (stereo not given) belongs over 100 µM; to `CCOC(=O)c1cn(-c2ccc([N+](=O)[O-])cc2)c(=S)n2c1nc1ccccc12`, over 100 µM.
In the case of `O[C@@H]1[C@H](OC2c3ccccc3-c3ccccc32)[C@H](OCc2ccccc2)[C@@H]2OC[C@H]1O2`, the TGI was over 100 µM.
With `Cc1cnc2[nH]c(-c3cccc4ccccc34)cc(=O)c2c1`, the TGI was over 100 µM.
`O=C1/C(=C/c2ccc(Br)s2)NC(=S)N1CN1CCCCC1`: the TGI was over 100 µM.
`CN1S(=O)(=O)N(C)P12(N=P(CP(=NP13(N(C)S(=O)(=O)N1C)N(C)S(=O)(=O)N3C)(c1ccccc1)c1ccccc1)(c1ccccc1)c1ccccc1)N(C)S(=O)(=O)N2C` displayed a TGI of over 100 µM.
For the compound `COC(=O)[C@@H]1Cc2ccc(OC)c(c2)OCCC(=O)N1`, the TGI is over 100 µM.
In the case of `O=S(=O)(O)C(c1ccccc1)C(O)c1ccccc1` (stereo not given), the TGI was over 100 µM.
Regarding `COc1cc2c3c(n(CCCN)c(=O)c2cc1OC)-c1ccc(N)cc1C3=O`, the GI50 is 4.58 µM and the TGI turned out to be 62.9 µM.
`Cc1csc(=Nc2ccccc2)n1CCC(O)(P(=O)(O)O)P(=O)(O)O` displayed a TGI of over 100 µM.
`CC(=O)Oc1ccc(-c2nnc(-c3ccc(OC(C)=O)cc3)nn2)cc1`: the TGI is over 100 µM.
On the same count and under the same terms, to `O=C1NC(c2ccccc2Cl)Nc2ccccc21` (stereo not given) belongs over 100 µM.
Compound `CC(C)(C)C1CC[C@H]2c3c([nH]c4ccccc34)[C@H]3C(=O)N(c4ccc(F)cc4)C(=O)[C@H]3[C@H]2C1` (stereo not given in full) displayed a TGI of 44.3 µM.
The same measure, in the same setting: the figure for `CC(=O)Nc1nc2c(=O)c3ccccc3sc2s1` is over 100 µM; for `CCOC(=O)c1c(C)n(-c2ccc(C)cc2)c(=O)c2ccccc2c(=O)c2c(=O)ccc(=O)c1=2` it is 52.7 µM.
The compound `CCC12C=C(C(=O)OC)N3c4ccccc4C4CCN(CCC1)C2C43` (stereo not given) yielded a TGI of over 100 µM.
For the compound `O=C(CCN1CCOCC1)Nc1ccc(Cn2nnc3c2C(=O)c2nnn(Cc4ccc(NC(=O)CCN5CCOCC5)cc4)c2C3=O)cc1`, the GI50 is 1.45 µM and the TGI was over 100 µM.
Consider `CCOC(=O)C1C(NC(N)=O)N(Cc2ccccc2)C(=O)N1Cc1ccccc1` (stereo not given), for which the TGI was over 100 µM.
`CC(C)CCCC(C)C1CCC2C3CC([N+](=O)[O-])=C4CC(O)CCC4(C)C3CCC12C` (stereo not given): the TGI amounted to 40.7 µM.
Same read-out and setting: to `CC1=C(C(=O)NNC(=O)C[N+](C)(C)C)CC(C(=O)NNC(=O)C[N+](C)(C)C)=C(C)N1` belongs over 100 µM; to `NCCc1ccc(S(=O)(=O)O)cc1[N+](=O)[O-]`, over 100 µM.
`O=C1NC(=O)N(S(=O)(=O)c2cc(C(=O)Nc3ccc(Cl)cc3)c(Cl)cc2S)S(=O)(=O)N1`: the GI50 was 22.1 µM and the TGI came out at 48.5 µM.
`C[C@H]1CCC/C=C/[C@@H]2C[C@H](OC(=O)CN(C)C)C[C@H]2[C@H](O)/C=C/C(=O)O1`: the TGI amounted to 4.22 µM.
Compound `CN(C)CCNC(=O)c1cccc2c1nc(-c1cccnc1)c1ccccc12` gave a TGI of 20.6 µM.
Still for that read-out and setting: to `O=[N+]([O-])c1ccc2c3c1[C@@H]1O[C@@H]1c1cccc(c1-3)[C@@H]1O[C@H]21` belongs 26.3 µM.
For the compound `COc1ccc(Cn2c(Br)c3c(c2-c2cc(OC)c(OC)c(OC)c2)CCc2sc(N)nc2-3)cc1`, the GI50 was 4.87 µM and the TGI is over 100 µM.
With `COC(=O)C1CC(=O)O[C@H]1c1ccc(OC)c(OC)c1` (stereo not given in full), the TGI was over 100 µM.
Turning to `O=C1[C@H](Cc2ccc(O)cc2)N2C(=O)CCN(C(=O)NCc3ccccc3)[C@H]2CN1Cc1cccc2ccccc12`, the GI50 was 4.01 µM and the TGI is 46.3 µM.
Consider `CNS(=O)(=O)Nc1nccc(Cc2c(C)c3ccc(Oc4ncccn4)cc3oc2=O)c1F`, for which the GI50 is 0.16 µM and 0.857 µM; the TGI was over 100 µM.
`COc1cc(Nc2nc3cc(C)ccc3nc2-c2ccccc2)cc(OC)c1OC` showed a TGI of over 100 µM.
Consider `COC(=O)/C(=N\N)C(C(=O)C(=O)Nc1cc(Cl)ccc1Cl)c1nc2ccc([N+](=O)[O-])cc2[nH]c1=O` (stereo not given), for which the TGI was over 100 µM.
On the same count and under the same terms, to `O=C(OC1OC2COC(=O)c3cc(O)c(O)c(O)c3-c3c(cc(O)c(O)c3O)C(=O)OC3C2OC(=O)[C@@]24CC(=O)[C@@](O)(OC25C(=O)O[C@H]2[C@@H](O)CO[C@@]25O)C2(O)Oc5c(O)c(O)cc(c5C24)C(=O)OC13)c1cc(O)c(O)c(O)c1` (stereo not given in full) belongs over 100 µM.
Turning to `N#CC1(CCCCl)CCCCC1`, the TGI is over 100 µM.
